Assay results: the supplement of paper PMC3334620
Over roughly 33,000 sequences, “E-score (-0.5 to 0.5)” has its median near -0.04; the highest 2% begin near 0.36. Some of the results follow.

The sequences below were run against T1, Hmlalpha2 (UniProt P0CY09) (assay: PBM E-score (8-mer binding enrichment) (E-score (-0.5 to 0.5)); higher = stronger / more preferred TF binding; most listed sequences are background and not binding sites). Conditions: protein concentration: 200 nM; construct: GST-full length.
T1 sequence: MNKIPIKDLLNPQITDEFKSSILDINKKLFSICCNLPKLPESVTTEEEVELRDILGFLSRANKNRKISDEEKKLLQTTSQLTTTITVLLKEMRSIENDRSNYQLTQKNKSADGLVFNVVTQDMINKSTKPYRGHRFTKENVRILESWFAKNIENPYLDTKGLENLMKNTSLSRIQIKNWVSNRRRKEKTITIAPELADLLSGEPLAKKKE
In short: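 Each ungapped eight-base word and its reverse complement, pooled, received an E-score from the Universal PBM Analysis Suite. Underlying scans, normalised with masliner, recorded fluorescent anti-GST bound to GST-tagged yeast transcription factors. These were applied at about 100-200 nM to universal all-10-mer Agilent arrays double-stranded by primer extension.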

| Sequence | PBM E-score |
| --- | --- |
| AGAAAGGC | -0.135 |
| CGTATAGA | 0.0477 |
| CGTCCTTC | -0.152 |
| TCTAGCAA | 0.019 |
| CACGGAAC | 0.0677 |
| CCCTATCG | -0.272 |
| ATTCCGAA | 0.0886 |
| ATGGGAAC | -0.177 |
| CATCATAG | -0.0614 |
| ATAGCGGG | -0.129 |
| CCTACCAC | -0.263 |
| GGACACAA | 0.168 |
| CAGTCGCG | -0.168 |
| ATCACTGG | -0.0104 |
| CACGTTTC | 0.0339 |
| ATGCTCAA | -0.109 |
| ATCTTGCG | -0.116 |
| ACGCAGTA | 0.142 |
| CCGTGAGA | -0.277 |
| CTCTGCTA | -0.158 |
| GGATGTCA | 0.133 |
| ACGCGGAC | 0.198 |
| CTTGTAGC | 0.16 |
| CCACGCCA | -0.0592 |
| GCTGGTAC | -0.136 |

| Sequence | PBM E-score |
| --- | --- |
| AGCCCCCT | -0.331 |
| GTCGTAGA | -0.0441 |
| CATCCAGA | -0.157 |
| ACTAGCAA | 0.106 |
| CGTGGTGA | -0.0179 |
| CCACACAA | -0.0216 |
| CGGCGCGA | 0.0333 |
| ACCCGATA | -0.208 |
| AGCCCACT | -0.239 |
| AGGATGAT | -0.0283 |
| ACCGGATG | 0.0199 |
| GGCTCAGA | -0.122 |
| GGCATCCC | -0.318 |
| CGACGCGA | 0.0852 |
| CCGGGTCG | -0.125 |
| ACGGTGCT | -0.242 |
| CGGCAAGA | -0.0264 |
| GGCACTAA | -0.0245 |
| ACATCCAC | 0.0839 |
| AGCCGTCC | -0.189 |
| AATGGTAC | 0.0651 |
| AAAAATAG | 0.141 |
| GGTGCTGA | -0.212 |
| GAGTGTTA | 0.21 |
| ACTTTGAT | -0.0739 |

| Sequence | PBM E-score |
| --- | --- |
| AAAGTACA | 0.262 |
| GCTTTTCC | -0.184 |
| AGTAAGCA | 0.0205 |
| CAACCTTC | 0.0257 |
| GAGGGCTA | -0.217 |
| TCTGATCA | -0.0854 |
| GAGCATCA | -0.213 |
| TCTCGCAA | -0.103 |
| AGCTCCTA | -0.165 |
| CTATGCGC | -0.0691 |
| CGAACGAC | -0.0163 |
| CCTGACAA | 0.0323 |
| AGGCTGTC | -0.273 |
| TACGGCAA | 0.0454 |
| CCAGGGTC | -0.194 |
| CCCGCATC | -0.169 |
| GATCCGCA | -0.215 |
| AACCCCAA | 0.0146 |
| ATTCCAGG | -0.0979 |
| ACCTGTAC | 0.165 |
| GATAAGTA | 0.0843 |
| CCCGTCCA | -0.234 |
| AGACCTCG | -0.165 |
| ACAATGGT | -0.0479 |
| GAATGGTC | -0.161 |

| Sequence | PBM E-score |
| --- | --- |
| CCATAGTC | -0.225 |
| AAGCGATT | -0.137 |
| AGCCGACG | -0.0963 |
| TCAAGCAA | -0.0826 |
| CCGCGTGA | 0.102 |
| CTTCGGGA | -0.186 |
| CGAGATCA | -0.169 |
| CCACTCCA | -0.214 |
| CATTGCCA | 0.174 |
| ACTTCGTG | 0.119 |
| TATCGTCA | -0.00037 |
| CGAAAATC | 0.178 |
| AGCTACAT | 0.264 |
| ACGCGGCT | 0.271 |
| AGTACCTG | 0.0548 |
| CCATTCTA | -0.0568 |
| ACACCGGA | -0.00859 |
| GCCTGCGC | -0.279 |
| GACGTAAA | 0.28 |
| ACTTTCAA | -0.00135 |
| GTAACCAA | 0.136 |
| GATAAGAC | -0.0897 |
| CAGTGAAC | 0.0896 |
| CAGGTGTA | 0.235 |
| GCGCGGAA | -0.193 |

| Sequence | PBM E-score |
| --- | --- |
| GCTGCGTA | 0.301 |
| GAGACGCA | -0.0522 |
| GAAGGGCC | -0.111 |
| GTCCAATA | -0.0374 |
| AAGAAAAT | 0.169 |
| CGCAATCA | 0.00959 |
| CAGGTACG | -0.0832 |
| CTATAAGC | 0.0531 |
| GAGACATC | -0.268 |
| GACTACTA | 0.0788 |
| ATGGCTAC | -0.00025 |
| AGGCGGGA | -0.0554 |
| CAAGCGTC | -0.0593 |
| CATGCGGG | -0.0713 |
| AAAGCGAT | -0.072 |
| CGCTACAG | -0.0307 |
| ATGCTACC | 0.017 |
| ATTCGATA | 0.0276 |
| GGAAAAAA | 0.0247 |
| CAAGACGC | -0.0979 |
| TCCGGTAA | -0.0221 |
| CACCAAGG | -0.306 |
| GAGAAAAA | -0.0271 |
| TCAAGAAA | 0.181 |
| AATACCTA | 0.227 |

| Sequence | PBM E-score |
| --- | --- |
| CGTAATGC | 0.23 |
| AGAAGCAT | 0.0325 |
| TATTAGAA | 0.234 |
| ACCCTAAA | -0.212 |
| GCCGCAAA | -0.204 |
| AGGAAAAA | 0.00347 |
| CCCATGGG | -0.174 |
| GCAGGTAC | -0.0928 |
| ACCATGGG | -0.244 |
| GTATACTA | 0.0716 |
| CAGCGGGA | -0.226 |
| AGATCGAT | -0.0341 |
| ACGATTTC | 0.132 |
| AGAAAATC | -0.0334 |
| ACACACCG | 0.287 |
| ATCAAGTC | 0.0662 |
| AGTCTCTG | -0.217 |
| ACCCACAG | -0.0315 |
| CAGACGTC | -0.0719 |
| CAGAAATC | -0.0849 |
| CGCGAATA | 0.135 |
| CCGTGAAC | -0.0809 |
| CGATTTTA | 0.081 |
| AAGGTTCT | -0.063 |
| CTATGTCC | -0.177 |

| Sequence | PBM E-score |
| --- | --- |
| CCTGGTTC | -0.147 |
| ATACGGAC | -0.12 |
| ATATCGAA | 0.0738 |
| AAGAAAAC | 0.0106 |
| ACGATCTC | -0.132 |
| AACAGGCA | 0.0325 |
| GTCACCCA | -0.182 |
| CTTACACA | 0.408 |
| GAGCGCCA | -0.25 |
| CGTTTAGA | -0.00881 |
| CACGTTGG | 0.109 |
| GTAGCAAC | 0.16 |
| CACCGCAG | -0.173 |
| ATAGCCGC | -0.101 |
| CGTCGACC | -0.01 |
| ACTCCATA | -0.214 |
| ACGGCGCG | 0.118 |
| AAGACCAG | -0.101 |
| AACTACGC | 0.224 |
| GTCCACAC | 0.124 |
| ACTGAGTA | -0.0165 |
| GATATATC | -0.228 |
